From PubChem BioAssay AID624296 (National Center for Advancing Translational Sciences (NCATS), 2012)
The whole screen tested about 350,000 compounds, of which about 9,900 (2.8%) were called active. The inconclusive results got no clear call from the source; some entries with a clear call stand among them for comparison. Calls follow the shape of the dose curve; as a rule, active = well fitted activation curve with a large enough effect; inconclusive = small, poorly fitted or top-dose-only effect; inactive = no such curve, though single readings can be large or run the other way. Potencies of inconclusive entries are left out as doubtful fits.

Assay: A quantitative high throughput screen for small molecules that induce DNA re-replication in MCF 10a normal breast cells. Also: nearly all actives have a fitted effect of over 50% in size. As to activity, positive = re-replication: % of control where 0% means no effect.
Conditions: MCF 10A DNA re-replication, Hoechst nuclear intensity, 48 h; activity, positive = re-replication: at 46.1 µM (top of the series)
Potency is read from the fitted curve at half-maximal effect; tags tell the direction and shape of the fitted curve.

SMILES	Potency	activity, positive = re-replication
O=C(c1n[nH]c2ccccc12)N1CCN(S(=O)(=O)c2ccc3ccccc3c2)CC1	inconclusive [activator, partial curve, poor fit]	–
COc1ccc(Nc2oc(COc3ccc(Cl)cc3)nc2C#N)cc1	inconclusive [activator, single point]	–
COc1ccc(NC(=O)Cn2c3ccc(OC)cc3c3nc4n(c(=O)c32)CCS4)cc1	inconclusive [activator, single point]	–
O=C(NCc1cccs1)C1CCC(=O)N(Cc2cccc(C(F)(F)F)c2)C1 (stereo not given)	–	inactive: 11.3%
CSc1ccccc1NC(=O)NCCCl	inconclusive [activator, single point]	–
CCC(C)(C)c1nnc(NC(=O)c2cccc([N+](=O)[O-])c2)s1	–	inactive: -3.53%
Cc1sc2ncnc(NCC(c3ccco3)N3CCCC3)c2c1C (stereo not given)	inconclusive [activator, single point]	–
COc1cccc(-c2nc(=S)c3c(n2CCCO)CCCC3)c1	–	inactive: 7.26%
CCOC(=O)C1CCN(S(=O)(=O)c2ccc3[nH]c(=O)ccc3c2)CC1	–	inactive: -8.36%
COc1ccc(N(CC(=O)N2CCc3ccccc32)S(=O)(=O)c2c(C)nn(C)c2C)cc1	–	inactive: 1.13%
COc1ccc(/C=C/C(=O)Nc2ccncc2)cc1OC	inconclusive [activator, full curve, poor fit]	–
COc1cc(/C=C2/CCc3ccccc3C2=O)cc(OC)c1OC	active: 18.4 µM	–
CC(C)(C)c1ccc(C(=O)OCCN2CCCCC2)cc1	–	inactive: -3.06%
CCOC(=O)c1c(NS(=O)(=O)c2cccc(OC)c2)sc2c1CCC2	inconclusive [activator, single point]	–
CCOC(=O)c1sc2nc(C)cc(C)c2c1N	active: 18.4 µM	–
CCOc1ccccc1N1CCN(C(=O)c2cc3ccccc3cc2OC)CC1	active: 2.06 µM	–
COCCn1c(C)cc(C(=O)COC(=O)c2ccc(S(=O)(=O)N(C)C)cc2)c1C	–	inactive: 2.1%
CCn1nc(C)c(NC(=O)/C=C/c2ccc(OC)c(COc3ccc(Br)cc3)c2)c1C	active: 8.2 µM	–
Cc1cccc(NC(=O)c2ccc(S(=O)(=O)N3CCN(C)CC3)cc2)c1C	inconclusive [activator, single point]	–
CCCN1C(=O)S/C(=C\c2ccc(N3CCOCC3)o2)C1=O	active: 15.8 µM	–
CCOC(=O)c1ccc(CNC(=O)CSc2nc(NC(=O)c3ccccc3)c3c(C)c(C)oc3n2)cc1	–	inactive: -1.08%
COc1cc(CCCN2C(=O)C(=O)NC[C@@H]2CC2CCCCC2)cc(OC)c1OC	inconclusive [activator, partial curve, poor fit]	–
Cc1ccc(S(=O)(=O)NCCC(=O)Nc2ccc(C)c(Cl)c2)cc1C	inconclusive [activator, single point]	–
O=[N+]([O-])c1ccc2c(c1Nc1ccccc1)=NC1(CCCCC1)N=2	inconclusive [activator, partial curve]	–

SMILES	Potency	activity, positive = re-replication
CC(OC(=O)CCc1nc2ccccc2c(=O)[nH]1)C(=O)NCc1ccc2c(c1)OCO2 (stereo not given)	–	inactive: 1.67%
CCN1CCCc2cc(CN(CCN3CCOCC3)C(=O)Nc3ccc(C)c(C)c3)ccc21	inconclusive [activator, partial curve]	–
Cc1cc(NC(=O)CCN2C(=O)C3C4CCC(C4)C3C2=O)cc(C)c1Br (stereo not given)	inconclusive [activator, partial curve, poor fit]	–
Cn1c(=O)c(/C=C/c2ccc(F)cc2)nc2ccccc21	inconclusive [activator, partial curve]	–
Cc1cc(Cl)c2oc(C(=O)N(C)C3CCOC3)c(C)c2c1 (stereo not given)	inconclusive [activator, single point]	–
COc1ccccc1N1CCN(C(=O)c2ccc3ncsc3c2)CC1	active: 20.6 µM	–
O=C(OCC(=O)N1CCc2ccccc21)c1c2c(nc3ccccc13)CCCCC2	active: 10.3 µM	–
Cc1ccc(Nc2ncnc3sccc23)c(C)c1	inconclusive [activator, partial curve, poor fit]	–
c1ccc(-c2nc3cnccn3c2Nc2ccc3c(c2)OCCO3)cc1	–	inactive: 13.3%
Cc1ccccc1/C=C/C(=O)c1ccc([N+](=O)[O-])o1	inconclusive [activator, partial curve, poor fit]	–
CCCCN(C(=O)c1cccc(-n2cccc2)c1)c1c(N)n(CCCC)c(=O)[nH]c1=O	inconclusive [activator, single point]	–
CCOC(=O)N1CCC(NC(=O)C2=CCN(S(=O)(=O)c3ccc(OC)cc3)CC2)CC1	–	inactive: 4.57%
O=C1/C(=C/c2ccc(F)cc2)CCC1C1CCCC1 (stereo not given)	–	inactive: -0.41%
C#CC(=O)N(c1ccc(OC)cc1OC)C(C(=O)NC1CCCC1)c1cccs1 (stereo not given)	inconclusive [activator, single point]	–
O=C1S/C(=C\c2ccc(Cl)cc2)C(=O)N1CCn1cnnn1	–	inactive: -0.482%
CCC(C)C1/C=C\CC(NC(=O)OCC2c3ccccc3-c3ccccc32)CC(=O)N1Cc1ccccc1 (stereo not given)	inconclusive [activator, partial curve]	–
COc1cc(C(=O)N2CCN(C(=O)c3cc(-c4ccc(Br)cc4)n[nH]3)CC2)cc(OC)c1OC	inconclusive [activator, single point]	–
CN1CCN(C(c2ccc(F)cc2)c2nnnn2Cc2cccs2)CC1 (stereo not given)	inconclusive [activator, full curve, poor fit]	–
c1ccc(CN2CCC(Nc3nc(-c4cccnc4)nc4ccccc34)CC2)cc1	inconclusive [activator, single point]	–
COc1cc(CN(C)C)cc(C=O)c1O	inconclusive [activator, single point]	–
CC(C)CNC(=S)N(CCN(C)C)Cc1cc2cc3c(cc2[nH]c1=O)OCO3	inconclusive [activator, single point]	–
CCN(c1ccccc1)S(=O)(=O)c1cccc(C(=O)N2CCN(S(=O)(=O)c3ccccc3)CC2)c1	inconclusive [activator, partial curve, poor fit]	–
O=C(Nc1ccc(Cl)cc1)N(Cc1cccs1)Cc1cccs1	inconclusive [activator, single point]	–
COc1ccc(Nc2nc3ccccc3n3cnnc23)cc1	inconclusive [activator, single point]	–

SMILES	Potency	activity, positive = re-replication
CCN(CCO)C1CC(=O)N(c2ccccc2C)C1=O (stereo not given)	inconclusive [activator, single point]	–
COc1ccc(NC(=O)CN2CCC(n3c(C)nc4cc(F)ccc43)CC2)c(OC)c1	inconclusive [activator, partial curve, poor fit]	–
CSc1ccccc1NC(=O)CN(C)Cc1ccc(Br)cc1	inconclusive [activator, single point]	–
COc1cc(OC)c(C(=O)Nc2cccc3ccccc23)cc1OC	–	inactive: -0.426%
O=C(/C=C/c1ccccc1)Nc1cccc(C(=O)NCCCCc2ccccc2)c1	inconclusive [activator, single point]	–
Cc1ccc(-c2nc3ncccc3o2)cc1NC(=O)c1sc2ccccc2c1Cl	inconclusive [activator, full curve, poor fit]	–
Cc1sc2ncn(CC(=O)N3CCOCC3)c(=O)c2c1-c1ccccc1	–	inactive: -5.49%
Cc1onc(-c2c(Cl)cccc2Cl)c1C(=O)N1CCOCC1	–	inactive: 3.14%
Cc1occc1C(=O)N1CCCC(Nc2ccc(C(C)C)cc2)C1 (stereo not given)	inconclusive [activator, partial curve, poor fit]	–
CN1C(=S)N(c2cccnc2)C(=O)/C1=C\c1ccc(N(C)C)cc1	inconclusive [activator, single point]	–
Cc1oc(-c2ccc(C(F)(F)F)cc2)nc1CN(Cc1ccccn1)C[C@@H]1CCC(=O)N1	–	inactive: -3.98%
CC(C)(C)OC(=O)NCCCC[C@H](NC(=O)c1[nH]cnc1C(=O)Nc1ccc(Cl)cc1)C(=O)OC(C)(C)C	inconclusive [activator, single point]	–
CCCOc1ccccc1OCC(=O)N1CCN(S(=O)(=O)c2ccc(Cl)cc2)CC1	inconclusive [activator, single point]	–
CC(C)c1ccc(NC(=O)C2CC3CCC2C3)cc1 (stereo not given)	inconclusive [activator, partial curve, poor fit]	–
CCN(CC)S(=O)(=O)c1ccc(N2CCOCC2)c(NC(=O)c2ccco2)c1	–	inactive: 2.11%
O=C(CN1CCCC1)Nc1ccc(-c2nc3cc(NC(=O)CN4CCCC4)ccc3o2)cc1	inconclusive [activator, single point]	–
CCOC(=O)C(CC)Sc1nc2c(c(=O)[nH]c(=O)n2C)n1C/C=C(/C)Cl (stereo not given)	inconclusive [activator, single point]	–
Oc1ccccc1CN(Cc1ccco1)CC(O)COCc1ccc(Cl)cc1 (stereo not given)	inconclusive [activator, single point]	–
COC(=O)c1ccccc1-c1ccc(/C=N/NC(N)=O)o1	–	inactive: -4.16%
COc1ccccc1C(=O)C(=O)c1ccccc1OC	–	inactive: -18.5%
CC(=O)c1ccc2c(c1)OCCOCCOc1ccccc1OCCOCCO2	inconclusive [activator, single point]	–
Cc1ccc2nc(N(CCCN(C)C)C(=O)COc3ccc(Cl)cc3)sc2c1	–	inactive: 0.734%
